This note sets out measurements from patent publication CN110922489A (BEIJING KANGPUMEITE INNOVATION MEDICINE TECH CO LTD, dated 2020).

For experiment [1], the target named is T1, 人C3dg-生物素 (human, UniProt P01024 partial chain, biotin label (生物素标记), site not stated).
T1 construct: domain: C3dg; Captured on a BIAcore streptavidin sensor chip; also called 生物素标记的C3dg
As to the kind of experiment: SPR (BIAcore 3000), C3dg-biotin captured on streptavidin chip, 1:1 model. (Surface plasmon resonance follows binding to a sensor surface in real time, without labels.)

In experiment [2] the target is T1, 人C3dg-生物素. In words: SPR (BIAcore 3000), C3dg-biotin captured on streptavidin chip, analyte 15.6-500 nmol/L, 1:1 model.
T1 sequence (P01024 955-1303 limits assumed): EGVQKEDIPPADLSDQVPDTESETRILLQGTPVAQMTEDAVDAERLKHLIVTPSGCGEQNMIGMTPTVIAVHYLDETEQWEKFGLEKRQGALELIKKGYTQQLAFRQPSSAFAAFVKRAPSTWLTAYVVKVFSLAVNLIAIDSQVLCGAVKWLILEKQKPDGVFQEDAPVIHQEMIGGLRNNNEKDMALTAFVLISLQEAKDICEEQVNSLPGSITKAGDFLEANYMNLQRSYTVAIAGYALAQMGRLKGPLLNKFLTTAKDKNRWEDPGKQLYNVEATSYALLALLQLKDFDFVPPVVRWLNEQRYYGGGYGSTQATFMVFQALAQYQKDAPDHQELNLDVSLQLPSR

B1: 抗C3d单链抗体 V L -Linker-V H (ScFv) (scFv)
scFv: MASYELTQPPSVSVAPGQTARITCSGDALGDKYASWYQQKPGQAPVLVIYEDSKRPSGIPERFSGSNSGNTATLTISGTQAEDEADYYCQSQAGAVVGVFGGGTKLTVLGSGGSTITSYNVYYTKLSSSGS[no letters for about 100 residues]GSVNHGVDFWGQGTLVTVSSA
notes: Expressed in CHO cells from pEE14.1, about 26 kD
As to B1, the binding result in experiment [1] is “binds”.

B2: 抗C3d单链抗体-CD59(ScFv-CD59)融合蛋白 (other)
chain: MASYELTQPPSVSVAPGQTARITCSGDALGDKYASWYQQKPGQAPVLVIYEDSKRPSGIPERFSGSNSGNTATLTISGTQAEDEADYYCQSQAGAVVGVFGGGTKLTVLGSGGSTITSYNVYYTKLSSSGS[no letters for about 100 residues]GSVNHGVDFWGQGTLVTVSSAGGGSGGGGSLQCYNCPNPTADCKTAVNCSSDFDACLITKAGLQVYNKCWKFEHCNFNDVTTRLRENELTYYCCKKDLCNFNEQLEN
notes: Secreted from CHO-K1 cells, about 36 kDa; also called C3d-ScFV-CD59
For B2, in experiment [2], the binding result is recorded as “binds”.
